# In patent US20230167188A1 (BIOLOJIC DESIGN, published 2023):
# T1: human TNFR2 (residues 1-461) expressed on HEK-TNFR2 reporter cells (human, UniProt P20333 23-461)
# T1 sequence (looked up): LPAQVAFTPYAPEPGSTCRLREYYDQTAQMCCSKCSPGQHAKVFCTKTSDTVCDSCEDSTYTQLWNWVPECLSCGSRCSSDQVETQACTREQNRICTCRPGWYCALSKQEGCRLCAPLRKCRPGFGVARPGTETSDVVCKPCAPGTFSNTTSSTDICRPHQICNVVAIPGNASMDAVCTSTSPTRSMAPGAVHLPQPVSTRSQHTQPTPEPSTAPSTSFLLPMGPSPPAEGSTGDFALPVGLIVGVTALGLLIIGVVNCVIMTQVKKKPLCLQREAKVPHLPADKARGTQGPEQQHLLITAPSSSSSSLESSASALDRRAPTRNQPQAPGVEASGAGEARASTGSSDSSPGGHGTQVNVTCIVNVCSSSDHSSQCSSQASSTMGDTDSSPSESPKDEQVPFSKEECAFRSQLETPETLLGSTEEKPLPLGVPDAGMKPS
# T2: recombinant human TNFR2 with 6×his tag (human, UniProt P20333 23-257, limits assumed)
# T2 construct: Bought (Reprokine, Israel); also called TNFR2-His; hTNFR2-His; not shown: 6xHis tag
# T2 sequence (looked up): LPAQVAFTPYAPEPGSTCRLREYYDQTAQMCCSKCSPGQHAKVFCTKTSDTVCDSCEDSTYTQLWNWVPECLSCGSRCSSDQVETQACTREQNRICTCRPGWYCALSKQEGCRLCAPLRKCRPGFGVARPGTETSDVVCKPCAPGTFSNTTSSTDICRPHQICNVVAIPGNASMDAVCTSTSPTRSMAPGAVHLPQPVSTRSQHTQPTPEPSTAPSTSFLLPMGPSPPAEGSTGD
# B1: BDG30.109 (antibody, human IgG1, kappa)
# heavy: QVQLVQSGAEVKKPGSSVKVSCKASGYTFTDLGIGWVRQAPGQGLEWMGWINTHTGEPYDNPKFKGRVTITADKSTSTAYMELSSLRSEDTAVYYCTRDHPLGLDYWGQGTTVTVSS[human IgG1 constant region not written out]
# light: DIVMTQSPDSLAVSLGERATINCRSSQSVDVNGVSYLDWYQQKPGQPPKLLITKASNRESGVPDRFSGSGSGTDFTLTISSLQAEDVAVYYCQQNREDPYTFGGGTKVEIKRTVAAPSVFIFPPSDEQLKSGTASVVCLLNNFYPREAKVQWKVDNALQSGNSQESVTEQDSKDSTYSLSSTLTLSKADYEKHKVYACEVTHQGLSSPVTKSFNRGEC
# notes: Human IgG1; also called IgG of CID_332
# B2: BDG30.111 (antibody, human IgG1, kappa)
# heavy: B1 heavy with A24G, Y59F, D60Y
# light: B1 light with D38N, L50F, T53Y, N95A
# notes: Human IgG1; also called IgG of CID_350
# B3: BDG30.046 (antibody, human IgG1, kappa)
# heavy: EVQLVQSGAEVKKPGSSVKVSCKASGDTFTSYSFNWVRQAPGQGLEWMGRIITILDDTEYAPHLQGRVTITADKSTSTVYLELRNLRSDDTAVYFCAGVYEGPNSEGSYDDYGFLKHWGQGTLVTVSS[human IgG1 constant region not written out]
# light: DIVMTQSPATLSVSPGERATLSCRASESVANDLAWYQQKPGQVPRLLIYGASTRATGVPARFSGSGSGAEFTLTISSLQSEDFAVYYCQQYANWPPRETFGQGTRLEIKRTVAAPSVFIFPPSDEQLKSGTASVVCLLNNFYPREAKVQWKVDNALQSGNSQESVTEQDSKDSTYSLSSTLTLSKADYEKHKVYACEVTHQGLSSPVTKSFNRGEC
# notes: Human IgG1; produced in HEK cells by Genscript; also called IgG of CID_251
# B4: BDG30.117 (antibody, human IgG1, kappa)
# heavy: EVQLVQSGAEVKKPGSSVKVSCKASGDTFTSYSFNWVRQAPGQGLEWMGRIITILDDTEYAPHLQGRVTITADKSTSTVYLELRNLRSDDTAVYFCAGVYEGPNSEGSYDDYGFLKYWGQGTLVTVSS[human IgG1 constant region with changes not written out]
# light: B3 light with N31V, W94K
# notes: Human IgG1(L234A/L235A); also called IgG of CID_277
# B5: BDG30.119 (antibody, human IgG1, kappa)
# heavy: EVQLVQSGAEVKKPGSSVKVSCKASGDTFTSYSFNWVRQAPGQGLEWMGRIITIDDDTEYAPHLQGRVTITADKSTSTVYLELRNLRSDDTAVYFCAGVYEGPNSEGSYDDYGQLKHWGQGTLVTVSS[human IgG1 constant region with changes not written out]
# light: B3 light with A30G, W94V
# notes: Human IgG1(L234A/L235A); also called IgG of CID_284
# B6: BDG30.094 (antibody, human IgG1, kappa)
# heavy: B3 heavy with I54D, F114Q
# light: B3 light
# notes: Human IgG1; also called IgG of CID_280
# B7: BDG30.092 (antibody, human IgG1, kappa)
# heavy: B3 heavy with L55Y, L115F
# light: B3 light
# notes: Human IgG1; also called IgG of CID_276
# B8: BDG30.093 (antibody, human IgG1, kappa)
# heavy: B3 heavy with H117Y
# light: B3 light with N31V, W94K
# notes: Human IgG1; also called IgG of CID_277
# B9: BDG30.118 (antibody, human IgG1, kappa)
# heavy: EVQLVQSGAEVKKPGSSVKVSCKASGDTFTSYSFNWVRQAPGQGLEWMGRIITDLDDTEYAPHLQGRVTITADKSTSTVYLELRNLRSDDTAVYFCAGVYEGPNSEGSYDDYGQLKHWGQGTLVTVSS[human IgG1 constant region with changes not written out]
# light: B3 light
# notes: Human IgG1(L234A/L235A); also called IgG of CID_280
# B10: BDG30.122 (antibody, human IgG1, kappa)
# heavy: QVQLVQSGAEVKKPGSSVKVSCKASGYTFTDLGIGWVRQAPGQGLEWMGWINTHTGEPYDNPKFKGRVTITADKSTSTAYMELSSLRSEDTAVYYCTRDHPLGLDYWGQGTTVTVSS[human IgG1 constant region with changes not written out]
# light: B1 light
# B11: BDG30.123 (antibody, human IgG1, kappa)
# heavy: QVQLVQSGAEVKKPGSSVKVSCKGSGYTFTDLGIGWVRQAPGQGLEWMGWINTHTGEPFYNPKFKGRVTITADKSTSTAYMELSSLRSEDTAVYYCTRDHPLGLDYWGQGTTVTVSS[human IgG1 constant region with changes not written out]
# light: B1 light with D38N, L50F, T53Y, N95A
# B12: BDG30.200 (antibody, human IgG1, kappa)
# heavy: EVQLVQSGAEVKKPGSSVKVSCKASGDTFTSYSFNWVRQAPGQGLEWMGRIITILDDTEYAPHLQGRVTITADKSTSTVYLELRNLRSDDTAVYFCAGVYEGPNSEGSYDDYGFLKHWGQGTLVTVSS[human IgG1 constant region with changes not written out]
# light: B3 light
# B13: BDG30.201 (antibody, human IgG1, kappa)
# heavy: EVQLVQSGAEVKKPGSSVKVSCKASGDTFTSYSFNWVRQAPGQGLEWMGRIITIYDDTEYAPHLQGRVTITADKSTSTVYLELRNLRSDDTAVYFCAGVYEGPNSEGSYDDYGFFKHWGQGTLVTVSS[human IgG1 constant region with changes not written out]
# light: B3 light
# B14: BDG30.095 (antibody, human IgG1, kappa)
# heavy: B3 heavy with L55D, F114Q
# light: B3 light with A30G, W94V
# notes: Human IgG1; also called IgG of CID_284
# Biological target: T1, human TNFR2 (residues 1-461) expressed …
# Experiment: cell-based or functional assay
row,Binder,"Functional Agonism EC50 (nM), NFkB-SEAP reporter"
1,B1,4.2 nM
2,B2,7.4 nM
3,B3,22 nM
4,B4,277 nM
5,B5,2.6 nM
6,B6,3.9 nM
7,B7,17.6 nM
8,B8,20.6 nM
9,B9,5.4 nM
10,B10,2.3 nM
11,B11,2.6 nM
12,B12,24.4 nM
13,B13,20 nM

# Biological target: T2, recombinant human TNFR2 with 6×his tag
# Experiment: ELISA, IgG coated, hTNFR2-His titrated, anti-His-HRP
# Procedure: IgG binding affinity to TNFR2 was examined by ELISA. 96 well plates (Greiner Bio-One high binding) were coated with (50 ng/well) of the analyzed antibody and incubated overnight at 4° C. The plates were then washed three times with 300 μl PBS buffer containing 0.05% Tween 20 (PBS-T), blocked with 300μ PBS-T supplemented with 1% to 2% BSA, and incubated for 1 hour at room temperature. Antibodies-coated plates were washed three times with 300 μl PBS-T and incubated with serial dilutions of test ligand hTNFR2-His (Reprokine, Israel) in a final volume of […] for 1-2 hours. Plates were then washed three times with 300 μl PBS-T and incubated with 50 μl anti-HIS-HRP (Santa Cruz Biotechnology, USA, SC-8036HRP) conjugate that was diluted 1:250 in PBS. After an additional wash step of six washes, the reaction was developed with […] tetramethylbenzidine (TMB) reagent (Southern biotech, USA), and stopped with […] 0.5N H₂SO₄. Detection was done on a Synergy LX BioTek (BioTek, USA) plate reader with an absorbance filter set to […]. The binding affinity was determined by fitting the data to a specific binding non-linear regression model on Prisma 8 GraphPad software.
# To test binding affinity of clones reformatted as IgG1 and IgG1LALA to TNFR2, an ELISA EC₅₀ binding experiment was conducted for each antibody.
row,Binder,EC50
1,B1,5.6 nM
2,B2,3.55 nM
3,B3,13.4 nM
4,B4,2.9 nM
5,B5,1.8 nM
6,B6,3.7 nM
7,B7,15.4 nM
8,B8,6.8 nM
9,B14,4.6 nM
10,B9,1.7 nM

# Substitutions are numbered along the chain they refer to. Numbers in names are those of the source.
